Measured values published in the supplement of paper PMC11417369.
This is one part of the list.

Tested on: PF3D7_0420300 AP2 domain 1 (GST-tagged)
Assay: gcPBM binding intensity (ln(normalized median fluorescence intensity)); higher = stronger DNA binding
In short: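 Alexa488 anti-GST antibody, scanned at 488 nm, detected GST-tagged P. falciparum DNA-binding domains that had been expressed in E. coli and incubated for 1 h on an Agilent 4 × 180k array. The array carried primer-extended double-stranded 36-bp intergenic genomic probes and negative controls. Binding intensity is the highest Masliner-normalised natural-log median intensity across replicate spots of either orientation of each probe.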

Row | Sequence | gcPBM binding intensity (ln)
1 | AAAAAAAATTAAGCATGTATAAATATATATATATAT [CACACA_negctrl_site1540] | 9.24
2 | TTTTACAAGTATTGATAAATAAGAAATATATAAAAT [CACACA_negctrl_site529] | 8.95
3 | AGAGGAAAAATAAAAGGAAAAAAGAAAATAATATTG [CACACA_negctrl_site852] | 9.13
4 | ATATATTACAATATATGTACTTAATTTGCTTAAATA [XGTACX_site7912] | 9.14
5 | ATAATATTTTAGAGCAGTACACTTTTATATTTATTG [XGTACX_site5728] | 9.41
6 | TAAAACAGAATGAGGAGTACAAAAAGAAGAAAAGGG [XGTACX_site1246] | 9.76
7 | AAAATAAATATTACATGTACATATATATATATATAT [XGTACX_site8492] | 9.13
8 | GTAATCCACAAACACACACACATACACATATATATA [CACACA_site2728] | 10.1
9 | AAAAAAACAACATGCACACGCACACCCAAAAAAAGC [CACACA_site72] | 9.98
10 | ATCATTTTTAATAAATGTACAAGTTTTAAAAAAAAA [XGTACX_site7340] | 8.83
11 | AGGAGGAACAAACAAAACAATAAAAATTATAATAAA [GTGCAC_negctrl_site206] | 9.43
12 | AAAAGACATTTTTTTTTATAAATACACACGTACGTG [TGCATGCA_negctrl_site281] | 9.16
13 | TTCAAAGACACAATCACACACATACATAAATATACA [CACACA_site687] | 9.84
14 | TTCCAAGAAATAATAGTGCATTATTCATTTTAATAA | 8.98
15 | AATATACATAACAAGGTGCAAAAAATATTGTTCATA [GTGCAC_site9499] | 9.5
16 | TTATTATTATGATTATTATGATGATTATACAACTGT [TGCATGCA_negctrl_site241] | 9.29
17 | ATTATATTAATTTATAGTACAATATTTATATATATG [XGTACX_site4668] | 9.2
18 | TATATATTACTTTTTTGTACGAATTTTACAACTACG [XGTACX_site3473] | 9.28
19 | TATTAAAATATTCTCACACACCAAAATATGTATGTA [CACACA_site6565] | 9.36
20 | AAAAAAAAAAAAAAAAAAAGAAAAGAAAATAGGGTT [GTGCAC_negctrl_site421] | 9.4
21 | TTTCCGGTAATATGGAGATATATGTGGGTTTTTTTT [GTGCAC_negctrl_site374] | 9.48
22 | ACAAAATTTACAAAATGTACAAAGTATGTGTTTTAT [XGTACX_site6462] | 9.22

Row | Sequence | gcPBM binding intensity (ln)
23 | AGAAAAAAGAGGGATACACACAAACATATATTTATA [CACACA_site7122] | 9.95
24 | ATATTTTTTTTTTTCACACACATTTATATTGTATTA [CACACA_site5695] | 9.9
25 | GATTAAAATCAAAGGTGTACGCACAAATAAGTCCCA [XGTACX_site4360] | 9.3
26 | CACCCTTTGTTTTAGAGTACATATGTATATACGTAA [XGTACX_site7964] | 9.14
27 | TATATATATTTATGTACACACATATATACCTTTCAT [CACACA_site5479] | 9.6
28 | TATTAATTATAAGATGCATGTGCAAAAATATGTTCC [TGCATGCA_site51] | 9.37
29 | TTTCTTTGTATTTATAGTACATATTTTAATAACTGC [XGTACX_site6673] | 9.1
30 | ATAATATTTTATTATACATGCAAATTATTATATATA [TGCATGCA_site40] | 9.09
31 | TAAAAATTAAAAAGGGTGCAAAAAAAAAAAAAAAAA [GTGCAC_site9733] | 8.83
32 | TATATTTATTTTTAATGTACATATTTAAGAAAACTA [XGTACX_site4920] | 8.88
33 | AACTTGTATTTATACACACACACACTAGCTTTTTTT [CACACA_site5132] | 10.2
34 | AGAATTAAAAACAGTTGTACAAAAAGTTGTATAAAT [XGTACX_site411] | 9.64
35 | AGTAATAAATTTTATACATGCATAAAAAAAAAAAAA [TGCATGCA_site661] | 9.11
36 | TATAGCTTTCATTATACACACATCAAAAATTTAAAT [CACACA_site227] | 9.38
37 | TTAAAAATCATTTAAGAACACACAAATATTTCCATT [CACACA_site8418] | 9.17
38 | GCCATTAATTTATACACACACATTATAACTTTTTAT [CACACA_site6492] | 10
39 | TTAAATAAAAAAATAACACACATATAAATCTATATG [CACACA_site7482] | 9.52
40 | TATCAGCAATGGAAAACATGCAAAAAATTAATATAT [TGCATGCA_site623] | 9.25
41 | TCTTCAAAGACACAATCACACACATACATAAATATA [CACACA_site8128] | 9.7
42 | AATACGTTTCAAAAATGTACACATATATCATAAATA [XGTACX_site8962] | 9.17
43 | ATCAAAAATGTTATATATATATATATATATATATAT [TGCATGCA_negctrl_site71] | 9
44 | TATATAATTCAAAAATGTACATGAAATATAAATATT [XGTACX_site7984] | 9.29

Row | Sequence | gcPBM binding intensity (ln)
45 | TGATTCTTTTCAAAGTGTACAGTAATTTTTATGTAA [XGTACX_site8452] | 8.95
46 | ATATTATAAATTATAGGTACACACAAAAAAAAAAAG [XGTACX_site2637] | 9.85
47 | ATATCAAGCTATGAGAAAAAAAAAAAGAAAAAAAAA [CACACA_negctrl_site1370] | 8.92
48 | AAATATATTGCATATATACACACGTATATATATTAA [CACACA_site2759] | 9.24
49 | AAGTTTTCTTAAAGATGTACTTTTTAAAAATAAAAT [XGTACX_site3063] | 8.83
50 | TCTACATCTGTATATAAACACACAACAAAAATGCTT [CACACA_site9271] | 9.33
51 | GTATATATGTATGTATGTACTTATAAAGTTGCATAT [XGTACX_site5616] | 9.24
52 | ACTTTATTATATATTTGTACATATATTTTTAATTTC [XGTACX_site4144] | 9.53
53 | TATTTATTGTGATACTTATATTATTTCATGATTAAT [CACACA_negctrl_site738] | 9.26
54 | TTCTTACACAAAAAAATGAAATCAATCAAAAAAAAA [CACACA_negctrl_site869] | 9.07
55 | TATATATTTCAATAATGTACATATAATATATATATT [XGTACX_site4124] | 9.13
56 | AATGTGTAGACACGCACACACAAAAAAATATTTATA [CACACA_site7384] | 9.6
57 | AAATTATATATAAAATGTACATATGTAGGTAATTTT [XGTACX_site5047] | 9.45
58 | GAAAATATATTTAAGATGCACTTTAAAAATGTACTT | 9.05
59 | AAGTAATCATCATAAAGTACTAAATTATATTGTCAA [XGTACX_site5841] | 9.18
60 | ACATTCTGATGGTGATTATTAATTATTACAAAAATT [CACACA_negctrl_site283] | 9.05
61 | TTTTATTTTCGATGATGTACATTAAATTATACAGTA [XGTACX_site6053] | 8.98
62 | AAATATTACTCCTCAAGTACACATAAAAAAAAAATA [XGTACX_site2085] | 9.26
63 | AATATACAAAATAAATAAAATATATATATATATATA [CACACA_negctrl_site216] | 9.29
64 | TATTTTTTTTGATATTGTACTTTTTTATTATTTTTT [XGTACX_site566] | 9.56
65 | TAAAAATTTAAGAAAACATGCATCTAACATATATAT [TGCATGCA_site342] | 9.27
66 | TTGTTTTCACCAAATACACACAAGCATACACCCCAT [CACACA_site2717] | 9.59

Row | Sequence | gcPBM binding intensity (ln)
67 | TTACATGCTAAAATTTGTACATATATGATAAATATT [XGTACX_site2648] | 9.08
68 | ATACATAAATTTATACGTACATATATAGATACATAA [XGTACX_site675] | 9.3
69 | AAGTAAAATAAGTATACACACATAAATATGTAAATA [CACACA_site6467] | 9.67
70 | TTTTTTTTTTCTTTTTTTTATTATATTAACGGAATT [GTGCAC_negctrl_site104] | 9.05
71 | AAAAAGAAATACAAATAATATATATATATATATATT [TGCATGCA_negctrl_site458] | 9.22
72 | CATAAAAATTGAAGCACACACACAAAAGAAATACAA [CACACA_site1112] | 10.2
73 | AATAAACAAATAAATAAACACACAATATATGTATAT [CACACA_site9268] | 9.8
74 | TTTCTTTAACAAGTTAAACACACATACATATATACA [CACACA_site8810] | 9.27
75 | ATCATTTCTATATAAGCACACACGTGGAATTTTTTT [CACACA_site2786] | 9.57
76 | CACATACAGATATATACACACAAATATAAATACACA [CACACA_site6512] | 9.98
77 | AATAAATATAAAAATGCACACACACTAATAAAAAAA [CACACA_site8201] | 10.2
78 | TTACTTATATGCATAGTGCAAATTTGGTAAATATCT | 9.15
79 | AAAATAAATATATTATCCACGTTGTATATATATATA [XGTACX_negctrl_site136] | 9.34
80 | CAATTTATTATATATGTGCACATATAATTTTACAAA | 8.94
81 | TAATTATTTTTATTGTTGCACTAGTAAAATTTTAAG [GTGCAC_site9946] | 9.11
82 | TACATTTTAATATAAGCATGCCTTTAGTTTTTTTCT [TGCATGCA_site829] | 9.34
83 | AATACAAATATATATGCACACACATATACATACATA [CACACA_site8677] | 9.83
84 | AATATGTAAATATGGGTGCTTTAAAATATATTCATT [GTGCAC_site9583] | 9.27
85 | TTCCAATGATAAAATTGTACTTGAAGAAAATTTTTT [XGTACX_site4607] | 8.77
86 | AGCGTATAACATATGACACACACACCGACATACACA [CACACA_site8532] | 9.93
87 | TACGTATCATAATTTTATTTTATATATATTCACAAA [XGTACX_negctrl_site144] | 9.23
88 | ATATATATATGGAAGTGTACTTATATAGCATACTAG [XGTACX_site5130] | 9.34
